# Laboratory results reported in PubChem BioAssay AID686978 (National Center for Advancing Translational Sciences (NCATS), 2013).
# About 64,000 (15%) of roughly 420,000 compounds were called active. Inconclusive means that the source gave no clear call. Such entries were picked first, then a sample of the others. Calls follow the shape of the dose curve; as a rule, active = well fitted inhibition curve with a large enough effect; inconclusive = small, poorly fitted or top-dose-only effect; inactive = flat fitted curve, though single readings scatter. Potencies of inconclusive entries are left out as doubtful fits.
# Experiment: qHTS for Inhibitors of human tyrosyl-DNA phosphodiesterase 1 (TDP1): qHTS in cells in absence of CPT; also: nearly all actives have a fitted effect of over 55% in size
# Details: DT40 Tdp1-/- hTDP1 cells, no CPT, ATP luminescence, 48 h; activity change, negative = growth inhibition: at 46.2 µM (top of the series) unless noted
# Method in brief: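 Chicken DT40 Tdp1-/- cells stably complemented with human TDP1 were seeded at 400 cells/well with DMSO in place of 20 nM camptothecin. After compound pinning, cells grew at least 48 hr at 37 °C; viability read by CellTiter-Glo luminescence.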
# % is scaled to controls: 0 for no effect and ±100 for the full control effect; potency is read from the fitted curve at half-maximal effect; tags tell the direction and shape of the fitted curve.
SMILES,"activity change, negative = growth inhibition",Potency
O=C(CSc1ncnc2c1oc1ccccc12)Nc1nccs1,inactive: 8.02%,–
C=CCc1c(C)nc(-c2ccccc2)nc1Nc1ccc(O)cc1,–,active: 14.6 µM
CCc1ccc(N(CC)C(=O)Cn2nc(Cc3cccnc3)c3ccccc3c2=O)cc1,–,"inconclusive [inhibitor, partial curve, poor fit]"
CCOC(=O)c1cc(C)n(CC2CCC(C(=O)Nc3ccccc3OC)CC2)c1C (configuration not stated),–,"inconclusive [inhibitor, single point]"
NNc1nc2c(F)cc(F)cc2s1,–,active: 23.1 µM
CCC(C)(C)C1CCC2(CC1)NC(=O)N(CC(=O)NC(C)CCc1ccccc1)C2=O (configuration not stated),–,active: 11.6 µM
CC(=O)c1ccc(NS(=O)(=O)c2c(C)nc3scc(C)n3c2=O)cc1,inactive: -11.5%,–
Cc1cc(C)n2nc(SCCCC(=O)c3ccc(F)cc3)nc2n1,–,"inconclusive [inhibitor, single point]"
CCC1(CC)Cc2ccccc2-c2nc(-c3ccccc3)oc(=O)c21,–,active: 16.4 µM
COc1ccccc1N1Cc2ccccc2C1,–,active: 16.4 µM
O=C(COc1ccc(F)cc1Cl)Nc1cccc(S(=O)(=O)N2CCCC2)c1,inactive: -25.7%,–
Cc1ccc2oc(-c3ccc(C)c(NC(=O)C(C)(C)Oc4ccc(Cl)cc4)c3)nc2c1,–,"inconclusive [inhibitor, single point]"
Cc1ccc(C(=O)NC(=S)N2CC(C)OC(C)C2)cc1[N+](=O)[O-] (configuration not stated),–,"inconclusive [inhibitor, single point]"
CCCCc1c(C)nc2ccc(C)cc2c1SCCC(=O)O,–,active: 9.2 µM
COc1ccccc1C(=O)NCCC(=O)N1CC(=O)Nc2ccccc21,–,"inconclusive [inhibitor, single point]"
CN(c1ccccc1)S(=O)(=O)c1cccc(NC(=O)CCN2C(=O)C3CCCCC3C2=O)c1 (configuration not stated),inactive: -23%,–
COCCN(CC(=O)Nc1ccccc1)S(=O)(=O)c1ccc(S(=O)(=O)N2CCCC2)cc1,inconclusive: -30.5% [inhibitor],–
Cn1c(SCc2ccccc2Cl)nc2ccccc21,–,"inconclusive [inhibitor, single point]"
COc1ccccc1NC(=O)c1oc2ccccc2c1NC(=O)COc1cccc(C)c1,inactive: 0.597%,–
O=C(O)C1C2CC(C(Br)C2Br)C1C(=O)O (configuration not stated),inactive: 4.27%,–
COc1ccc(Cl)cc1NC(=O)N(C)CCc1c(C)nn(C)c1C,inconclusive: -33.2% [inhibitor],–
COc1ccc(NC(=O)Cc2nnc(SCC(=O)NC3=NCCS3)n2C)cc1,–,"inconclusive [inhibitor, single point]"
O=C1CCCN1CCCNc1ccc2nnc(CCC(=O)N3CCN(c4ccc(F)cc4)CC3)n2n1,inactive: -28.7%,–
Cc1c(C(=O)N2CCN(c3ccccc3)CC2)oc2c(F)cccc12,–,"inconclusive [inhibitor, single point]"

SMILES,"activity change, negative = growth inhibition",Potency
O=[N+]([O-])c1cccc(COc2cccc(CN3CCCCC3)c2)c1,inactive: -14.7%,–
COc1ccc(S(=O)(=O)N2CCN(Cc3ccc(Cl)cc3)CC2)cc1,–,"inconclusive [inhibitor, single point]"
COc1cccc(-c2nc(C(=O)NCC3CCCO3)cc3c2[nH]c2ccccc23)c1 (configuration not stated),–,active: 2.31 µM
CN(C)CCNC(=O)c1cccc(-c2cnc3c(NC=O)cc(-c4cc(F)c(F)c(F)c4)cn23)c1,–,active: 3.26 µM
O=C(CCN1C(=O)/C(=C/c2ccc(F)cc2)SC1=S)N[C@@H](CO)Cc1ccccc1,–,active: 20.6 µM
COc1cccc(NC(=O)CCNC(=O)C2CCN(S(=O)(=O)c3ccc(F)cc3)CC2)c1,inactive: -1.08%,–
COc1ccc(NC(=S)/N=C(\N)Nc2nc(C)c3ccc(C)cc3n2)cc1,–,"inconclusive [inhibitor, single point]"
CCCCC(NC(C)=O)c1nc2ccccc2n1CCCC (configuration not stated),–,active: 2.06 µM
O=C(CN(Cc1ccc(F)cc1)C(=O)c1csnn1)NC1CCCC1,inactive: -8.6%,–
CCN(CC)c1ccc(NC(=O)Nc2ccccc2)cc1,–,"inconclusive [inhibitor, single point]"
COc1ccc(/C=C2\SC(N3CCc4ccccc4C3)=NC2=O)cc1,–,"inconclusive [inhibitor, single point]"
COc1cccc(CNC(=O)Cn2nc(C)c([N+](=O)[O-])c2C)c1,inactive: -19%,–
Cn1c(=O)[nH]c(=O)c2c1nc(Sc1ccccc1)n2CCc1ccccc1,inactive: -23.5%,–
CCCN(CCC)c1nc(N)c(C#N)c(CC#N)c1C#N,–,active: 23.1 µM
O=C(Nc1ccccc1)c1ccc(C(=O)Nc2ccccc2)nc1,–,"inconclusive [inhibitor, partial curve]"
CC(C)CC(N)c1csc(Nc2ccc(C(=O)c3ccccc3)cc2)n1 (configuration not stated),–,active: 16.4 µM
Cc1sc2ncn(CC(=O)Nc3ccc(C(C)C)cc3)c(=O)c2c1S(=O)(=O)N1CCN(c2ncccn2)CC1,–,"inconclusive [inhibitor, single point]"
CCOC(=O)c1c(NC(=O)COC(=O)Cn2c(C)nc3ccccc32)sc2c1CCCC2,–,"inconclusive [inhibitor, single point]"
COc1cccc(CN2CC(C(=O)NCCOc3cccnc3)CCC2=O)c1 (configuration not stated),inactive: -20.2%,–
Cc1cccc(-c2noc(-c3cccnc3NCc3ccc(Cl)cc3)n2)c1,inactive: -22.6%,–
CCN1C(=O)C2CCCCN2c2ccc(C(=O)NCCOC)cc21 (configuration not stated),inactive: 5.01%,–
Cn1c(=O)c2cc(NC(=S)NC3CCCCC3)ccc2n1Cc1ccc(F)cc1,–,"inconclusive [inhibitor, single point]"
C/C=C/C(=O)N1c2ccc(C)cc2C(C)=CC1(C)C,–,"inconclusive [inhibitor, partial curve]"
CSc1ccccc1NC(=O)c1ccc2c(c1)CCN2S(C)(=O)=O,inactive: -18.4%,–

SMILES,"activity change, negative = growth inhibition",Potency
COc1ccccc1N1CCN(C(=O)/C=C/c2cccs2)CC1,–,"inconclusive [inhibitor, partial curve, poor fit]"
O=C(Nc1ccc2c(c1)OCO2)c1nn(-c2ccccc2)c(=O)c2ccccc12,–,"inconclusive [inhibitor, partial curve]"
Cc1ccccc1C(=O)NC(=S)Nc1sc2c(c1C#N)CCC(C)C2 (configuration not stated),–,"inconclusive [inhibitor, single point]"
CCOc1cc(C(=O)OC(C(=O)NC(=O)NC)c2ccccc2)ccc1OCC(=O)N1CCOCC1 (configuration not stated),–,active: 18.4 µM
COc1ccc(OC)c(C2=NOC(C(=O)N3CCN(c4ccccc4)CC3)C2)c1 (configuration not stated),–,"inconclusive [inhibitor, single point]"
CCOC(=O)CSc1nc2sc(C)c(C)c2c(=O)n1N,–,"inconclusive [inhibitor, partial curve]"
Cc1cc(Cl)ccc1OCC(=O)Nc1ccccc1N1CCOCC1,–,"inconclusive [inhibitor, single point]"
O=C(CC1C[C@H](C(=O)N2CCOCC2)[C@@]2(CCC3CCCC3)c3[nH]c4ccccc4c3CCN2C1=O)NCCN1CCOCC1 (some centres not stated),–,"inconclusive [inhibitor, partial curve]"
Cc1ccc(C)c(S(=O)(=O)NNC(=O)c2sc(NS(=O)(=O)c3ccccc3)nc2C)c1,inactive: -14.4%,–
CCc1cc2c(COC(=O)c3cccc(S(C)(=O)=O)c3)cc(=O)oc2cc1O,–,"inconclusive [inhibitor, single point]"
CCOC(=O)c1cccc(NC(=O)Nc2ccc3c(c2)C(=O)OC3)c1,–,"inconclusive [inhibitor, partial curve, poor fit]"
CCOC(=O)N1CCN(C(=O)CSc2nc3c(cnn3-c3ccc(C)cc3)c(=O)[nH]2)CC1,inconclusive: -32.4% [inhibitor],–
CCCCCc1cc(=O)oc2c(C(CCN3CCCC3)c3cc(OC)c(OC)c(OC)c3)c(OC)cc(OC)c12 (configuration not stated),–,active: 16.4 µM
COc1cccc(C(=O)N/N=c2\oc3c(OC)cccc3cc2C(=O)NCc2ccccc2)c1,inactive: -25.3%,–
CCOC(=O)C1=C(C)N=c2s/c(=C\c3ccc(C(=O)O)cc3)c(=O)n2C1c1ccc(OC)cc1OC (configuration not stated),–,"inconclusive [inhibitor, single point]"
CCCCOc1ccc(C(=O)N/N=C/c2cn[nH]c2-c2ccc(OC)c(OC)c2)cc1,–,"inconclusive [inhibitor, single point]"
CN(Cc1ccccc1)C(=O)c1cccc(NC(=O)C2CCCN(C(=O)OC(C)(C)C)C2)c1 (configuration not stated),–,active: 16.4 µM
COc1ccc2ncc(S(=O)(=O)c3ccccc3)c(N3CCN(c4ccccc4)CC3)c2c1,–,"inconclusive [inhibitor, single point]"
Cc1cccc(NC(=S)N(CCN(C)C)C(C)c2ccco2)c1 (configuration not stated),–,"inconclusive [inhibitor, full curve]"
Cc1cn(CC(=O)NCCNc2ccc([N+](=O)[O-])cn2)c(=O)[nH]c1=O,inactive: 1.21%,–
Cc1ccccc1C(=O)N1CC(=O)Nc2ccc(Cl)cc2C1c1ccccc1 (configuration not stated),–,"inconclusive [inhibitor, single point]"
CCCc1cc2c(OC(=O)CC)c(-c3ccc(C(=O)OCC)o3)c(=O)oc2cc1OC,–,"inconclusive [inhibitor, single point]"
Cc1ccc(CN2CCC(=O)N2)cc1,–,"inconclusive [inhibitor, single point]"
O=C(c1cccs1)N1CCN(c2nnc(-c3ccccc3)c3ccccc23)CC1,–,"inconclusive [inhibitor, single point]"
